According to a collection of fitness landscapes (doi:10.1126/science.1257360):
Some of the results follow.

B1: PhoQ; a variant is named by its letters at X, in order, P23837 (parent)
chain: MKKLLRLFFPLSLRVRFLLATAAVVLVLSLAYGMVALIGYSVSFDKTTFRLLRGESNLFYTLAKWENNKLHVELPENIDKQSPTMTLIYDENGQLLWAQRDVPWLMKMIQPDWLKSNGFHEIEADVNDTSLLLSGDHSIQQQLQEVREDDDDAEMTHSVAVNVYPATSRMPKLTIVVVDTIPVELKSSYMVWSWFIYVLSANLLLVIPLLWVAAWWSLRPIEALAKEVRELEEHNRELLNPATTRELTSLVRNLNRLLKSERERYDKYRTTLTDLTHSLKTPLXXLQXXLRSLRSEKMSVSDAEPVMLEQISRISQQIGYYLHRASMRGGTLLSRELHPVAPLLDNLTSALNKVYQRKGVNISLDISPEISFVGEQNDFVEVMGNVLDNACKYCLEFVEISARQTDEHLYIVVEDDGPGIPLSKREVIFDRGQRVDTLRPGQGVGLAVAREITEQYEGKIVAGESMLGGARMEVIFGRQHSAPKDE

Variants of: B1
Test: enrichment ratio after two sorts for PhoP signalling (ratio (wild type AVST 3.29)); higher = more functional
Conditions: with PhoP (E. coli)

Variant	enrichment ratio
PVAA	≤ 0.25
HRDC	≤ 0.25
RCDA	≤ 0.25
ENKI	≤ 0.25
FEPW	≤ 0.25
IQRG	≤ 0.25
EDWH	≤ 0.25
DADY	≤ 0.25
PAAM	≤ 0.25
QGPV	≤ 0.25
REDF	≤ 0.25
HTTV	≤ 0.25
SVYF	≤ 0.25
KDQH	≤ 0.25
QIRM	≤ 0.25
MFNA	≤ 0.25
SWRF	≤ 0.25
DGFM	≤ 0.25
RQLH	≤ 0.25
VGTN	≤ 0.25
WRWN	≤ 0.25
QKFG	≤ 0.25
ITIC	≤ 0.25
GTEW	≤ 0.25
LWDM	≤ 0.25
GLHP	0.28

Variant	enrichment ratio
YDAI	≤ 0.25
AWAL	≤ 0.25
HGDD	≤ 0.25
QYNR	≤ 0.25
WDSI	≤ 0.25
YTRK	≤ 0.25
KDGI	≤ 0.25
YIHM	≤ 0.25
DTQG	≤ 0.25
GYAL	≤ 0.25
LICD	≤ 0.25
YYVD	≤ 0.25
WTNL	≤ 0.25
AANP	≤ 0.25
MANQ	≤ 0.25
NKAR	≤ 0.25
TRQC	≤ 0.25
SEAP	≤ 0.25
VISE	≤ 0.25
MCLT	0.891
LWDR	≤ 0.25
WMPC	≤ 0.25
VIGI	≤ 0.25
LCWQ	4.15
AIVN	3.15
PAYG	≤ 0.25

Variant	enrichment ratio
WGLT	≤ 0.25
FKSF	≤ 0.25
SQHP	≤ 0.25
IEYN	≤ 0.25
GLST	≤ 0.25
RIEC	≤ 0.25
SNEE	≤ 0.25
WICF	≤ 0.25
LCWP	≤ 0.25
FVKL	≤ 0.25
GFWH	≤ 0.25
LSEE	≤ 0.25
KMVY	≤ 0.25
MFTM	≤ 0.25
QKVM	≤ 0.25
PQEG	≤ 0.25
EFLN	≤ 0.25
MRRL	≤ 0.25
WLMM	≤ 0.25
MEWM	6.32
HIQP	≤ 0.25
AHKR	≤ 0.25
SSLS	11.4
RRGQ	≤ 0.25
HVMR	≤ 0.25
YKRS	≤ 0.25

Variant	enrichment ratio
FGGL	≤ 0.25
IFIG	≤ 0.25
ICKA	≤ 0.25
VKHP	≤ 0.25
WVVK	≤ 0.25
NFMC	≤ 0.25
AEGT	8.52
TYDW	≤ 0.25
ACVS	2.83
AMWV	≤ 0.25
ECGS	≤ 0.25
RHNK	≤ 0.25
KMSA	≤ 0.25
HWGA	≤ 0.25
YQMA	≤ 0.25
ATWP	≤ 0.25
WPAW	≤ 0.25
DVQM	≤ 0.25
KIWG	≤ 0.25
NDAC	≤ 0.25
NWHA	≤ 0.25
ALQH	≤ 0.25
TINM	15.1
FGST	≤ 0.25
IQKN	≤ 0.25
HGWF	≤ 0.25

Variant	enrichment ratio
ALRF	≤ 0.25
TRRN	≤ 0.25
TIDQ	≤ 0.25
AEPC	≤ 0.25
TMNQ	4.45
WDFE	≤ 0.25
NPQP	≤ 0.25
KPYY	≤ 0.25
EEQV	≤ 0.25
PVLG	≤ 0.25
GEKS	≤ 0.25
RIGL	≤ 0.25
GLVS	≤ 0.25
GVCA	≤ 0.25
QNNS	≤ 0.25
KFMM	≤ 0.25
ISQL	≤ 0.25
YPAH	≤ 0.25
PVLK	≤ 0.25
CTTL	≤ 0.25
SRIR	≤ 0.25
HEIL	≤ 0.25
ATDM	≤ 0.25
HLPP	≤ 0.25
PDCM	≤ 0.25
MSLD	≤ 0.25

Variant	enrichment ratio
RCPI	≤ 0.25
HANR	≤ 0.25
WVVL	≤ 0.25
VYQI	≤ 0.25
SIGE	16.9
KQND	≤ 0.25
FYYK	≤ 0.25
YICT	≤ 0.25
GPLR	≤ 0.25
PAFT	≤ 0.25
YFNE	≤ 0.25
SNSH	9.5
WRIM	≤ 0.25
KKVI	≤ 0.25
AKQT	≤ 0.25
SYAH	≤ 0.25
FCQW	≤ 0.25
YASD	≤ 0.25
GYHG	≤ 0.25
GPCE	≤ 0.25
HTNS	≤ 0.25
VPYP	≤ 0.25
ICKP	≤ 0.25
